Measurements from a compilation of properties of binary mixtures (doi:10.1007/s10953-010-9600-3).
The densities may have been worked out from excess volumes.

Assay: xn = mol fraction of the nth substance listed
Details: 101 kPa

O=C1CCCO1 + CC[NH3+].O=[N+]([O-])[O-]
x1 = 1
Details	mass density [kg/m3]
293.15 K	1120.3
298.15 K	1115.6
303.15 K	1109.1
308.15 K	1106.1
313.15 K	1101.4
318.15 K	1096.7

CC[NH3+].O=[N+]([O-])[O-] + O=C1CCCO1
mass density [kg/m3]
Details	293.15 K	298.15 K	303.15 K	308.15 K	313.15 K	318.15 K
x2 = 0	1210.2	1205.8	–	1196.9	–	–
x2 = 0.03	1205.7	1201.8	1197.7	1193.9	–	1186
x2 = 0.09	1199	1195.4	1191.9	1188.3	1184.7	1181.1
x2 = 0.15	1193.4	1190.1	–	1183.5	–	1176.8
x2 = 0.22	1188.8	1185.6	1182.7	1179.2	–	1172.9
x2 = 0.28	1184.8	1181.7	1178.8	1175.4	1172.3	1169.2
x2 = 0.34	1181.3	1178.1	1175.2	1171.9	1168.7	1165.6
x2 = 0.41	1178	1174.8	1171.7	–	1165.2	1161.9
x2 = 0.47	1174.8	–	–	1164.8	1161.4	–
x2 = 0.53	1171.4	1167.9	1164.2	1160.9	1157.4	1153.9
x2 = 0.59	1167.7	1164	–	–	1152.9	–
x2 = 0.66	–	–	1155	1151.6	–	1143.8
x2 = 0.72	1158.2	–	1149.2	1145.8	1141.7	1137.6
x2 = 0.78	1152	1147.7	–	–	–	1130.4
x2 = 0.85	1144.6	–	1134.4	1131.1	1126.7	1122.2
x2 = 0.91	1135.7	1131.1	1125.1	1121.8	1117.3	1112.6
x2 = 0.97	1125.2	–	1114.2	1111.1	1106.4	1101.7
